Some of the results follow. At the low end of the ranking the order means little. The protein was read in a cell extract, so binding may be indirect.

This is an account of results in paper PMC10726135.

The target of this assay is T1, HNF4alpha2 (COS-7 nuclear extract) (UniProt P41235).
T1 sequence: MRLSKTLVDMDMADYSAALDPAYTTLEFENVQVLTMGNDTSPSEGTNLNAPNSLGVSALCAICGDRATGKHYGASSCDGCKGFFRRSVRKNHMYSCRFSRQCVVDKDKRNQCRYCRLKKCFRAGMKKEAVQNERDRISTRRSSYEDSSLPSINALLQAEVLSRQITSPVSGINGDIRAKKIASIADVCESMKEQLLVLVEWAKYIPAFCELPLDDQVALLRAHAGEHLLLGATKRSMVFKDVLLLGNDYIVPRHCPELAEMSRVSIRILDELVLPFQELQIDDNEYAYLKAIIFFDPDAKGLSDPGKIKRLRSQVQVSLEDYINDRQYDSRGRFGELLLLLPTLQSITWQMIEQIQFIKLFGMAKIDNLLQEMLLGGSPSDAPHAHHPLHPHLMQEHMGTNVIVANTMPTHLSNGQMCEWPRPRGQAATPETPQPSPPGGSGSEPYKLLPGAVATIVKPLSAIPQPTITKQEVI
Nature of the assay: protein-binding microarray. The settings on record: COS-7 nuclear extract on double-stranded Agilent 4x180k PBM; binding buffer, salt, pH and temperature not given; high values mean tight binding; double strand, one strand shown; sequences stand for … in …GCCTAGGGAGATTAGAGTATCGGTCGA
Turning to ATCTGACAGAGATAAGGAAGTTCCAACATC, the binding signal (log2 normalized intensity) is -1.17.

Take ATGAGCAAGGTGGGTTCAGAGACCCTAGAG: the binding signal (log2 normalized intensity) is -1.21.

As to CTACAGGGTATGAATTTAACCTTTGCTCTC, the binding signal (log2 normalized intensity) was found to be 6.87.

With CTGCCTCCAGCTGTTGGTGACTGACCCTGA, the binding signal (log2 normalized intensity) was found to be 3.16.

On to GAGGCAGGATGACTGCTTGAGTCCAGGAGT, for which the binding signal (log2 normalized intensity) is -1.08.

Take GGGTGACCAGTGGACCATGAGAAACATCCA: the binding signal (log2 normalized intensity) was -1.16.

With ACTGAAAGCTATCCCTCCATATTGCAGACA, the binding signal (log2 normalized intensity) was -0.965.

As to TTCAGCTTATAAATCTTCAACTGGAGGATA, the binding signal (log2 normalized intensity) is 1.01.

Take ATTTTGGGGCTGTATTTACATGGATTAGTC: the binding signal (log2 normalized intensity) is 1.08.

As to ACATGTCATTGGCAGAAGGTGGAACAGTCA, the binding signal (log2 normalized intensity) is 1.07.

As for TGGTACTGGACATGGTCTAAGAAAAGCAGG, the binding signal (log2 normalized intensity) was -0.541.

Turning to AGGAACAGGCCCCAGGGACTTTGGCCTTAC, the binding signal (log2 normalized intensity) worked out at 5.18.

Consider AGATTCCAGAGGGAGGGAGGGTGGAGGAAC, for which the binding signal (log2 normalized intensity) was -1.21.

In the case of AAGGCTCTCTGTTGACCACCTGCCCCAGGA, the binding signal (log2 normalized intensity) was 1.19.

Turning to TCTTGGAGAGAAAAAATCAGAGAGCAAAGG, the binding signal (log2 normalized intensity) came to 1.25.

With AGTTTTTGCCCTTAAGCAGCATGTAGTTTA, the binding signal (log2 normalized intensity) was determined as 0.375.

In the case of AATCTTCAGCTGCCTTTTGCCAGGCTACAG, the binding signal (log2 normalized intensity) is -1.17.

CAAGATTTGGTGTTACCTTTGGACTGTCCT: the binding signal (log2 normalized intensity) amounted to 4.79.

With GATGATCAGTAAGGAGAGGGGGCGGGGAGA, the binding signal (log2 normalized intensity) is -1.13.

Consider TACTCAATAACCACATGAATACACATAATG, for which the binding signal (log2 normalized intensity) is -0.904.

Consider TCCTACAAGGGAGATAAACTTTATCTCCCT, for which the binding signal (log2 normalized intensity) was -1.09.

On to AAGGTAAGTGACCCTGGTCTTTGCCCTTTC, for which the binding signal (log2 normalized intensity) was determined as 4.87.

Consider ATCTTACTTTGAGGTGTTCTCTGGGGTTAG, for which the binding signal (log2 normalized intensity) was 1.97.

As for GTCTCCAGGCAAACTACAGTTTCTGTTTTC, the binding signal (log2 normalized intensity) is 0.0797.

For GCTGTGCCTGAATGCAGGGAGCAGAGTCCC, the binding signal (log2 normalized intensity) is -0.435.

As to CAATCTTGAGATAAGTACACAAAAGAGCTT, the binding signal (log2 normalized intensity) was -1.07.

With ATCATCACGGTGGACATTGTCCAAGGGCTG, the binding signal (log2 normalized intensity) was found to be 1.28.

Take GCCCTCAGGGAGCTCCAGCACTGGGGGACC: the binding signal (log2 normalized intensity) was -1.11.

As to TGGCTGCTGCTCTCAACTTTCCCTCAGTTC, the binding signal (log2 normalized intensity) was -1.18.

Take TTCAAACACAGGATTGAACCTCTGGAATTC: the binding signal (log2 normalized intensity) amounted to 1.58.

Consider TTTCCAGCTTTGATAGTCTGCTACCATCAG, for which the binding signal (log2 normalized intensity) is -1.12.

For the sequence AAGGACTGAGATAAGAGAAGGGGTCAGGTA, the binding signal (log2 normalized intensity) is 1.52.

As for TCTTCCCCTCCTTCAGGTCAAGAGGGCCTC, the binding signal (log2 normalized intensity) worked out at 2.29.

For the sequence AAGTCCATCTGGGCAAGGTGTCAACCTTCA, the binding signal (log2 normalized intensity) amounted to 0.12.

Consider AAAGGTCATATCCAAAATATTTGCAGTGAG, for which the binding signal (log2 normalized intensity) was 1.79.

For the sequence ACAGTTCGAACAGTTGGCCACCTTTGGCCG, the binding signal (log2 normalized intensity) was determined as 4.2.

Turning to CCCAATGCAGTACTATGCAATAACCAGGGA, the binding signal (log2 normalized intensity) is -0.648.

As to TAACTGAAAGTCATGCTGAAGTACAGATTC, the binding signal (log2 normalized intensity) is -0.0105.

TTGCACTGTGCTTTGTTTACTTAACCTTTG: the binding signal (log2 normalized intensity) stood at 4.05.

Turning to ATTCAAGAAAGGGGCAAAGTTTATGTGTGA, the binding signal (log2 normalized intensity) was determined as 2.76.
